According to the supplement of paper PMC12217912:
This is one part of the list. Sequences were assembled here from the parent chain. Inactive controls read about 0.05.

B1: TEV protease; numbered along this chain (parent)
chain: MGESLFKGPRDYNPISSSICHLTNESDGHTTSLYGIGFGPFIITNKHLFRRNNGTLVVQSLHGVFKVKDTTTLQQHLVDGRDMIIIRMPKDFPPFPQKLKFREPQREERICLVTTNFQTKSMSSMVSDTSCTFPSGDGIFWKHWIQTKDGQCGSPLVSTRDGFIVGIHSASNFTNTNNYFTSVPKNFMELLTNQEAQQWVSGWRLNADSVLWGGHKVFMVKPEEPFQPVKEATQL

Variants of: B1
Experiment: raw area under fraction-flipped curve 0-4 h after induction (AUC4h, not background-subtracted), DNA-recorder readout of cleavage of the substrate (dimensionless); higher = more cleavage of the substrate by the protease variant
Conditions: temperature: 34 °C; time window: 0-4 h after rhamnose induction
Procedure: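 In vivo DNA recorder in E. coli TOP10(DE3) ΔrhaA at 34 °C. Each TEVp single-site mutant (parent TEVp 0) is paired with a single-site variant of the 7-mer TEVs (canonical ENLYFQ|S). The substrate sits between flexible linkers in a Bxb1-sfGFP-TEVs-SsrA fusion, so cleavage stabilises Bxb1 and speeds flipping of a recombination array, read by NGS. The value is the raw area under the fraction-flipped curve over 0-4 h after rhamnose induction (AUC4h), with ≥20 reads per time point. It is not background-subtracted; inactive controls average about 0.047.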
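Also: Bxb1 expression induced with 0.2% (w/v) L-rhamnose at OD600 near 0.5, cultures sampled hourly, flipped fraction per protease–substrate barcode pair counted by paired-end Illumina sequencing.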

Variant: H62I
- area with substrate ENLYAQS: 0.08
- area with substrate ENLYDQS: 0.0662
- area with substrate ENLYEQS: 0.0706
- area with substrate ENLYGQS: 0.0694
- area with substrate ENLYHQS: 0.0681
- area with substrate ENLYMQS: 0.069
- area with substrate ENLYPQS: 0.0575
- area with substrate ENLYRQS: 0.034
- area with substrate ENLYSQS: 0.0453
- area with substrate ENLYTQS: 0.0664
- area with substrate ENLYYQS: 0.0667

Variant: F65N
- area with substrate ENLYAQS: 0.0741
- area with substrate ENLYCQS: 0.0708
- area with substrate ENLYDQS: 0.0523
- area with substrate ENLYEQS: 0.129
- area with substrate ENLYGQS: 0.0645
- area with substrate ENLYHQS: 0.0826
- area with substrate ENLYIQS: 0.13
- area with substrate ENLYKQS: 0.0613
- area with substrate ENLYNQS: 0.0675
- area with substrate ENLYPQS: 0.0703
- area with substrate ENLYQQS: 0.0614
- area with substrate ENLYRQS: 0.0606
- area with substrate ENLYWQS: 0.071

Variant: K66D
- area with substrate ENLYAQS: 0.0652
- area with substrate ENLYDQS: 0.0785
- area with substrate ENLYEQS: 0.0543
- area with substrate ENLYGQS: 0.0608
- area with substrate ENLYHQS: 0.0713
- area with substrate ENLYIQS: 0.119
- area with substrate ENLYKQS: 0.0575
- area with substrate ENLYMQS: 0.0818
- area with substrate ENLYNQS: 0.053
- area with substrate ENLYRQS: 0.0547
- area with substrate ENLYSQS: 0.082
- area with substrate ENLYWQS: 0.0813
- area with substrate ENLYYQS: 0.0655

Variant: V67S
- area with substrate ENLYAQS: 0.0634
- area with substrate ENLYDQS: 0.0521
- area with substrate ENLYEQS: 0.0681
- area with substrate ENLYGQS: 0.0536
- area with substrate ENLYHQS: 0.0681
- area with substrate ENLYIQS: 0.0928
- area with substrate ENLYKQS: 0.0797
- area with substrate ENLYMQS: 0.076
- area with substrate ENLYNQS: 0.0564
- area with substrate ENLYPQS: 0.0713
- area with substrate ENLYQQS: 0.0552
- area with substrate ENLYRQS: 0.0572
- area with substrate ENLYSQS: 0.0653
- area with substrate ENLYTQS: 0.0696
- area with substrate ENLYVQS: 0.0911
- area with substrate ENLYWQS: 0.0657
- area with substrate ENLYYQS: 0.0588

Variant: V67W
- area with substrate ENLYAQS: 0.0774
- area with substrate ENLYDQS: 0.059
- area with substrate ENLYEQS: 0.0735
- area with substrate ENLYGQS: 0.0723
- area with substrate ENLYHQS: 0.0568
- area with substrate ENLYKQS: 0.0669
- area with substrate ENLYMQS: 0.0893
- area with substrate ENLYNQS: 0.0744
- area with substrate ENLYPQS: 0.07
- area with substrate ENLYSQS: 0.079
- area with substrate ENLYVQS: 0.112
- area with substrate ENLYWQS: 0.0702

Variant: K68I
- area with substrate ENLYAQS: 0.0713
- area with substrate ENLYDQS: 0.0589
- area with substrate ENLYEQS: 0.0675
- area with substrate ENLYGQS: 0.0889
- area with substrate ENLYHQS: 0.0452
- area with substrate ENLYIQS: 0.135
- area with substrate ENLYKQS: 0.0401
- area with substrate ENLYLQS: 0.0986
- area with substrate ENLYMQS: 0.0434
- area with substrate ENLYNQS: 0.0674
- area with substrate ENLYPQS: 0.0683
- area with substrate ENLYQQS: 0.0563
- area with substrate ENLYRQS: 0.0403
- area with substrate ENLYSQS: 0.0661
- area with substrate ENLYVQS: 0.121
- area with substrate ENLYYQS: 0.0472

Variant: D69S
- area with substrate ENLYAQS: 0.065
- area with substrate ENLYCQS: 0.0827
- area with substrate ENLYDQS: 0.0596
- area with substrate ENLYEQS: 0.0614
- area with substrate ENLYGQS: 0.0596
- area with substrate ENLYHQS: 0.0625
- area with substrate ENLYIQS: 0.0748
- area with substrate ENLYLQS: 0.074
- area with substrate ENLYMQS: 0.0755
- area with substrate ENLYNQS: 0.0723
- area with substrate ENLYQQS: 0.0637
- area with substrate ENLYRQS: 0.0651
- area with substrate ENLYSQS: 0.0754
- area with substrate ENLYTQS: 0.074
- area with substrate ENLYYQS: 0.0693

Variant: T71V
- area with substrate ENLYAQS: 0.0438
- area with substrate ENLYDQS: 0.0665
- area with substrate ENLYEQS: 0.057
- area with substrate ENLYHQS: 0.0641
- area with substrate ENLYKQS: 0.0302
- area with substrate ENLYMQS: 0.0161
- area with substrate ENLYNQS: 0.0451
- area with substrate ENLYPQS: 0.0716
- area with substrate ENLYRQS: 0.0633
- area with substrate ENLYSQS: 0.0681
- area with substrate ENLYVQS: 0.113
- area with substrate ENLYWQS: 0.0702
- area with substrate ENLYYQS: 0.0108

Variant: L73E
- area with substrate ENLYAQS: 0.0633
- area with substrate ENLYCQS: 0.0621
- area with substrate ENLYDQS: 0.0474
- area with substrate ENLYEQS: 0.0562
- area with substrate ENLYGQS: 0.0518
- area with substrate ENLYIQS: 0.0775
- area with substrate ENLYKQS: 0.0604
- area with substrate ENLYLQS: 0.0487
- area with substrate ENLYNQS: 0.0708
- area with substrate ENLYQQS: 0.0589
- area with substrate ENLYRQS: 0.0699
- area with substrate ENLYSQS: 0.0664
- area with substrate ENLYTQS: 0.0535
- area with substrate ENLYYQS: 0.0551

Variant: L73Q
- area with substrate ENLYAQS: 0.0673
- area with substrate ENLYCQS: 0.0338
- area with substrate ENLYDQS: 0.0551
- area with substrate ENLYEQS: 0.0533
- area with substrate ENLYGQS: 0.0636
- area with substrate ENLYHQS: 0.0586
- area with substrate ENLYKQS: 0.0221
- area with substrate ENLYMQS: 0.0756
- area with substrate ENLYNQS: 0.0568
- area with substrate ENLYPQS: 0.0532
- area with substrate ENLYRQS: 0.058
- area with substrate ENLYSQS: 0.0509
- area with substrate ENLYTQS: 0.0644
- area with substrate ENLYWQS: 0.0559

Variant: L73R
- area with substrate ENLYAQS: 0.0455
- area with substrate ENLYDQS: 0.0554
- area with substrate ENLYEQS: 0.0696
- area with substrate ENLYGQS: 0.0476
- area with substrate ENLYIQS: 0.0597
- area with substrate ENLYKQS: 0.0427
- area with substrate ENLYLQS: 0.052
- area with substrate ENLYMQS: 0.0498
- area with substrate ENLYNQS: 0.0549
- area with substrate ENLYPQS: 0.0517
- area with substrate ENLYQQS: 0.0668
- area with substrate ENLYRQS: 0.0495
- area with substrate ENLYSQS: 0.0535
- area with substrate ENLYVQS: 0.0653
- area with substrate ENLYWQS: 0.0442

Variant: Q75E
- area with substrate ENLYAQS: 0.0417
- area with substrate ENLYDQS: 0.0578
- area with substrate ENLYGQS: 0.0626
- area with substrate ENLYHQS: 0.0498
- area with substrate ENLYIQS: 0.0936
- area with substrate ENLYMQS: 0.0648
- area with substrate ENLYPQS: 0.0575
- area with substrate ENLYRQS: 0.0548
- area with substrate ENLYSQS: 0.0654
- area with substrate ENLYVQS: 0.0742
- area with substrate ENLYWQS: 0.0618
- area with substrate ENLYYQS: 0.0643

Variant: H76D
- area with substrate ENLYAQS: 0.0594
- area with substrate ENLYDQS: 0.0666
- area with substrate ENLYGQS: 0.0357
- area with substrate ENLYHQS: 0.0611
- area with substrate ENLYIQS: 0.074
- area with substrate ENLYKQS: 0.0648
- area with substrate ENLYMQS: 0.0631
- area with substrate ENLYNQS: 0.0631
- area with substrate ENLYTQS: 0.0271
- area with substrate ENLYVQS: 0.0557
- area with substrate ENLYWQS: 0.0591
